Laboratory results: ChEMBL document CHEMBL4888484, “Replenishing the malaria drug discovery pipeline: Screening and hit evaluation of the MMV Hit Generation Library 1 (HGL1) against asexual blood stage Plasmodium falciparum ,using a nano luciferase reporter read-out” (2022)
The whole screen tested about 4,800 compounds, of which about 410 (8.5%) showed an effect of 50% or more. The list shows a part of the results.

system: Plasmodium falciparum; experiment: Confirmatory screen in NF54 pLDH assay, in single point, at 2uM, 72h; type: functional, Erythrocyte; conditions: timepoint 72 hour

| Compound | % Inhibition [%] |
| --- | --- |
| COc1ccc(CNCCC2C(C)CN(C)C(C)C2Cc2ccccc2)cc1 (centres undefined) | 66 |
| CC(C)(NCCc1c[nH]c2ccccc12)c1nnnn1Cc1cccnc1 | 14 |
| CS(=O)(=O)N1CC[C@H](CC(=O)NCCCc2ccccc2)C1 | 8 |
| O=C(O)C[C@@H]1CCN(CC2CC2)C[C@@H]1Cc1nc2ccccc2[nH]1 | 6 |
| CN(C)c1ccc(C(=O)N[C@@]2(C)CCS(=O)(=O)C2)cc1 | -2 |
| CC(C)N1CCC2(CC1)N=C(c1ccc3c(c1)OCO3)C[C@@H](c1cc(Cl)ccc1O)N2 | 26 |
| CC(C)(C)c1ccc(-c2cc(C[C@H]3CNCC[C@H]3CC(=O)NCCN3CCOCC3)no2)cc1 | 20 |
| CC(=O)c1ccc(N2CCN(c3nccn4nc(-c5ccccc5C)cc34)CC2)cc1 | -10 |
| O=C1CCc2[nH]c(=O)n(C3CCCCC3)c(=O)c21 | 11 |
| CCN1C(=O)[C@]2(NC3(CCCCC3)C(=O)N2CC)c2ccccc21 | -11 |
| CCn1cc(-c2nc(-c3ccccc3C)no2)c(=O)c2cc(F)c(N3CCCCC3)cc21 | 42 |
| Cc1ccc(OCn2cc(NS(=O)(=O)c3cnn(C)c3C)cn2)c(C)c1 | 5 |
| C=CCNCc1ccc(Br)cc1 | -20 |
| O=C(NCC1CC2CCC1C2)N1CCOC(Cn2cccn2)C1 (centres undefined) | -10 |
| COc1cccc(N2CCN(C(=O)c3nn(-c4ccc(C)cc4)c(OC)cc3=O)CC2)c1 | 4 |
| c1ccc(CNc2ncnc3c2cnn3-c2ccccn2)cc1 | 7 |
| Nc1ncnc(NCc2cccnc2OCC(F)F)c1Cl | 8 |
| CC1CN(C(=O)C(Cc2ccccc2)NC(=O)c2ccccc2)CC(C)O1 (centres undefined) | 3 |
| CC(C)C(=O)N1N=C(C(C)C)C[C@]1(O)C(F)(F)F | 13 |
| Cc1nnc(O)c(CNC(=O)COC2CCCC(C)C2)c1C (centres undefined) | -4 |
| O=C(N[C@H]1C[C@@H]2C[C@H]1CN2C(=O)c1cccc(C(F)(F)F)c1)c1ccccc1 | 10 |
| O=C(Cn1c(=O)n(C2CC2)c(=O)c2snc(-c3ccccn3)c21)NCc1ccccc1 | 13 |

| Compound | % Inhibition [%] |
| --- | --- |
| CC[C@@H](CO)Nc1ncc2cc3ccccc3nc2c1C#N | 5 |
| CCc1cc(C(=O)N2CCC(C)CC2)c2c(C3CC3)nn(-c3ccc(F)cc3)c2n1 | 14 |
| O=C(Cn1nnc2c1CCCC2)NCc1ccc2cc[nH]c2n1 | 12 |
| Cc1cc(C)cc(-n2c(=O)c3sccc3n(CC(=O)N[C@@H](C)CCc3ccccc3)c2=O)c1 | -8 |
| Cc1ccc(C)c(-n2c(=O)c3sccc3n(CC(=O)N3CC(C)CC(C)C3)c2=O)c1 (centres undefined) | -6 |
| COc1cc2ncc3c(-c4ccc(C)c(C)c4)n[nH]c3c2cc1OC | 40 |
| O=C1Nc2ccc(-c3ccccc3)cc2[C@@]1(O)C(F)(F)F | 9 |
| Cc1ccc(CNC(=O)c2csnn2)n1C | 6 |
| Cc1cc2ncn(CN3CC[C@@H](NC(=O)OC(C)(C)C)C3)c2cc1C | -7 |
| C[C@H](O)CNCc1ccc(Cl)cc1Cl | 1 |
| CCn1cc(C)c(C(=O)O)c1CC(=O)NCc1ccc(F)cc1 | -24 |
| COc1cccc(-c2cc(C(=O)N3CCCN(C(=O)c4cc(-c5cccc(OC)c5)nc5ccccc45)CC3)c3ccccc3n2)c1 | -26 |
| CCC(NC(=O)c1c[nH]c(C)cc1=O)C(O)c1ccccc1F (centres undefined) | 10 |
| Cc1ccc(Oc2ccccc2CNC(=O)[C@@H]2CCC(=O)N2)cc1 | -20 |
| CCC1CCCC(NS(=O)(=O)CCC(C)(C)C)C1 (centres undefined) | -12 |
| CC1CCC(N(CC(=O)NC(N)=O)C2CC2)CC1 (centres undefined) | 9 |
| Cc1ccsc1-c1noc([C@@H]2COCCN2C)n1 | 0 |
| CNc1c(-n2cc(C(=O)OC)c(C(=O)OC)c2C#N)c(=O)n(C)c(=O)n1C | -17 |
| CC(N=C1NC(=NC(C)c2ccccc2)c2ccccc21)c1ccccc1 (centres undefined) | 48 |
| CCn1ccc(CN(C)C(=O)[C@H]2CCCN(S(=O)(=O)c3cnn(C)c3C)C2)n1 | -4 |
| Cc1nc2cccnc2n1-c1cc(C(=O)NCC[C@H](C)N2CCCC2)ccc1Cl | 8 |
| C[C@H](c1ccccc1)N1C(=O)[C@@H]2CN(C(=O)CC(C)(C)C)CCN2C1=O | -13 |

| Compound | % Inhibition [%] |
| --- | --- |
| Cc1nnc(NC(=O)c2ccc3n[nH]c(=O)n3c2)s1 | -22 |
| Cn1c(CN2CCOC[C@@]23CCOC3)nnc1C1CC1 | 13 |
| O=C(Nc1cc(C(F)(F)F)ccc1Cl)C1CCC(N2C(=O)c3cc(Cl)c(Cl)cc3C2=O)CC1 (centres undefined) | -6 |
| CC(C)(C)c1ccc(C(=O)C(=O)NC[C@H]2CCCO2)cc1 | -15 |
| Cc1ccc2c(c1)ncc1c(-c3ccccc3)nn(-c3ccc(F)cc3)c12 | 3 |
| CC(C)c1cc(CNC(=O)N2CCCC[C@H]2c2cccc(F)c2)no1 | 6 |
| Cn1nc(C2CC2)c2c(C(F)(F)F)cc(-c3ccco3)nc21 | 10 |
| Cc1nc(Cn2nnc(NC(=O)c3cccc(F)c3)c2C)no1 | 8 |
| Cc1nc2cccnc2n1-c1cc(C(=O)NCc2ccccc2Cl)ccc1Cl | 9 |
| CCc1ccc(-c2cc3n(n2)C[C@@](C)(C(=O)NC2CCCCC2)N(c2cc(C)cc(C)c2)C3=O)cc1 | 58 |
| FC(F)(F)c1cnc(C[C@@H]2NCCc3ccccc32)c(Cl)c1 | 11 |
| O=C(CCCCC(=O)n1nnc2ccccc21)n1nnc2ccccc21 | -15 |
| CCC(=O)Nc1ccc(-n2cnc(C(=O)NCc3ccco3)c2)nc1 | -15 |
| COC[C@H](O)CNC(=O)c1cccn1C1CC1 | 12 |
| CCOc1nc(C)nc2cc(-c3ccccc3)n(Cc3ccccc3)c12 | 13 |
| Cc1noc(C)c1NC(=O)CCS(=O)(=O)c1ccc2ccccc2c1 | 4 |
| Cn1c(C(=O)Nc2ccc(S(N)(=O)=O)cc2)cc2occc21 | -18 |
| Cc1cc(C)cc(NC(=O)Cc2nnc3ccc(C(=O)Nc4ccccc4)cn23)c1 | 8 |
| Cn1cc(-c2noc(Cc3c(F)cccc3Cl)n2)ccc1=O | 11 |
| COc1ccc2cc3n(c2c1)C[C@](C(=O)NC1CCCCCC1)(c1ccccc1)N(Cc1cccc(Br)c1)C3=O | 10 |
